Reference: the supplement of paper PMC11417369
The other results are listed elsewhere or left out.

test system: PF3D7_0420300 AP2 domain 1 (GST-tagged); assay: gcPBM binding intensity (ln(normalized median fluorescence intensity)); higher = stronger DNA binding
Outline: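 Each value is the highest Masliner-normalised natural-log median intensity across replicate spots of either orientation of a probe. The probes were primer-extended double-stranded 36-bp intergenic genomic sequences on an Agilent 4 × 180k array, alongside negative controls, exposed for 1 h to GST-tagged P. falciparum DNA-binding domains expressed in E. coli. Bound protein was picked up with Alexa488 anti-GST antibody and scanned at 488 nm.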

Sequence | gcPBM binding intensity (ln)
TTAGAATTTAGAGAAGTGCATATTAAGTTACGAATT [GTGCAC_site9861] | 9.22
ATTATATATATATATAGTACTTTTTTTTTTTTTTTT [XGTACX_site8801] | 9.08
TTATTGGTTATATAAAGTACATTTGAAATATAATTG [XGTACX_site6553] | 8.99
ATAATAATTTTATGCACACAGAAAAATACAAGGTTA [CACACA_site3510] | 9.44
TTGCCTGACTTGTTCACACATATTTATGATATACAT [CACACA_site5783] | 9.57
TTTTCTTGGTATATGATTTATCCTAAATAAGTAAAT [CACACA_negctrl_site294] | 9.13
TATATCAAATTCTAAACATGCACAAAAAACTTATAA [TGCATGCA_site510] | 9.23
AAGGAAAAACCATTCGCACACACACCGAATATATAA [CACACA_site8403] | 9.88
ACTTAAATAATACATACACACATGTACATACAGAAA [CACACA_site1595] | 9.66
TATTTATATAGACACACACACATATATTTATATTTT [CACACA_site7240] | 10
TTTACATTTAATAAAAGTACTTATTTCATATACATA [XGTACX_site659] | 9
TAATTCTTTATAATAACACACATTCATATACAATAA [CACACA_site2499] | 9.34
GGTATTACCTGTTTGTTATGTAGATGTTGCTAGGAT [GTGCAC_negctrl_site736] | 9.4
ATACCAATAATATACATACACACATAAAGGTTTATA [CACACA_site314] | 9.75
AAGAAAAACTAAAGAGTTCTGTTCATATCTCTTTGG [TGCATGCA_negctrl_site549] | 8.99
TTTTACAATAACAATACACACTATAATATATATATA [CACACA_site4893] | 9.28
TAGGAGCCGAAACACACACACAAAAAAAAAAAAAAA [CACACA_site1731] | 9.55
CATATATATAAATACACACACACACCCCTTATAATT [CACACA_site4064] | 10.2
AAAAGAATTTGAAGTCGTACAATATCTATTATATGA [XGTACX_site8275] | 9.03

Sequence | gcPBM binding intensity (ln)
AAAAAATGGCTAGTTTGTACACAAAAGTTATTGCAT [XGTACX_site5381] | 9.25
ATATAATATACTTATTGTACTTATTTAAAATACTAA [XGTACX_site4266] | 9.01
AAAAAAAAATAAAAATGTACATATATAATATTATAT [XGTACX_site71] | 9.34
AAGATAAAATTATGCACACATACGAATAATTTTAAA [CACACA_site1705] | 9.38
TTTCTCAATTCTTAGAGTACATAAATAAAAAAAAAA [XGTACX_site7639] | 8.74
ATCACTAACATGTGTTGTACATAAAATTTGTTTGTT [XGTACX_site2207] | 9.33
AAAAAACAAAAACACACACACACATATATATATATA [CACACA_site3654] | 10.2
TTATTATTTAACATGTGGACACAAAAATTTAAGGGT [XGTACX_site4638] | 9.29
TTAACTTTTATATAGTGTACAAATAAATGCATACAG [XGTACX_site5958] | 9.12
TCTACTACTTAATGGAGTACTAGCTTCATAATATTA [XGTACX_site7030] | 8.97
TGCAAATTTAACAAAAAAAAAAAAAAAAAAAAAAAA [GTGCAC_negctrl_site64] | 8.4
TATTATGTATAAAGAAGTACTTTTTTTTTTTTTTTC [XGTACX_site201] | 8.8
TGAACACAGACAAATACACACAAAAAAAATAAATAA [CACACA_site4298] | 9.79
GATTATTTAAAATATACATGCGCGCACATATGCATA [TGCATGCA_site630] | 9.23
TGCATTTTCCTATTTGCATGCAATTAAAATATAGAA [TGCATGCA_site862] | 8.96
ATGTTTTAATGAGGTTTGCACTATATTTTAATGAAC | 9.33
AACATATATACAGTAACACACACAAAAAAATATGAA [CACACA_site9323] | 10.1
TCAAGTTTATATTAACTATTTATGAAAAAAAAAAGA [CACACA_negctrl_site902] | 8.82
CTAAAAATTTTAATTGCACACCACGTTGGACTATTT [CACACA_site1489] | 9.24

Sequence | gcPBM binding intensity (ln)
TTACACTAAATATGTTCACACATTTTTTCCATCATA [CACACA_site4647] | 9.31
ATATATTACAAATGGAGTACTAAAAATATTCTATAT [XGTACX_site6669] | 9.35
TATAAGGCAATAATAGTGCACTAAGATATATAATGA | 9.28
CCCATGCATTTTTGCACACACATATATTTATAAATA [CACACA_site6785] | 9.58
TATATATATGGGTTTACACACAATAATGAATTAAAA [CACACA_site915] | 9.56
CCCACAGACGGACACACACACACATATATATATATA [CACACA_site4352] | 10.1
ATAAAAATGGATGAATATAAAAAAAAAAAAATATAT [CACACA_negctrl_site182] | 9.3
GAATATATAAGAACAAATATGGCTTAGAAAAAAAAA [TGCATGCA_negctrl_site451] | 9.16
TACAAAAGTTAAACATGTACTTAATTATATGTTTTT [XGTACX_site2852] | 9.07
CTATTAAAAAAATTATGTACACAACGTCTCTATATA [XGTACX_site4813] | 9.17
TACATTTTTATTTTTACACACATATATATATATATA [CACACA_site1021] | 9.66
TATTATTTTATGAGACATAAAAAAAAAAAAAAAAAA [CACACA_negctrl_site1534] | 8.36
TATAATATATTTATATGTACTTATTTATTTATATAT [XGTACX_site6519] | 9.27
GAGTTTATTCTTTTTATACACACCTTATTTGATTAA [CACACA_site735] | 9.57
TTAAGTATTTTACGTACACACTTATAAATGTACAGG [CACACA_site6012] | 9.26
AAGTATTATTATAAGACACACATGTATATAAGTATA [CACACA_site1479] | 9.45
TCTTTATATATATATATATGTGTGAATGTTAAGTAT [XGTACX_negctrl_site135] | 9.24
AAATTGTCTGCATATAGTACATAAATATATTAATAT [XGTACX_site4557] | 9.15
ATATATATATATATAGTGCATAATGTTTTAATAGAT | 9.33
